Data reported in the supplement of paper PMC11417369.
± gives the standard deviation of the averaged measurements. The list shows a part of the results.

What follows are sequences tested on PfAP2-I AP2 domain 3 (GST-tagged) (assay: gcPBM binding intensity (ln(normalized median fluorescence intensity)); higher = stronger DNA binding).
Method in brief: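 Using an Agilent 4 × 180k array, primer-extended double-stranded 36-bp intergenic genomic probes and negative controls were exposed for 1 h to GST-fused P. falciparum DNA-binding domains expressed in E. coli. Binding was carried out in 1× PBS with 1% milk, 0.2 mg/ml BSA, 0.5% salmon testes DNA and 0.03% Triton X-100, and protein was detected with Alexa488 anti-GST antibody and a 488 nm scan. Binding intensity is the highest Masliner-normalised natural-log median intensity across replicate spots of either probe orientation.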

Row | Sequence | gcPBM binding intensity (ln)
1 | AAAAAAAAAAAAAAATGTACATGACATGACATGACA [XGTACX_site4020] | 8.16 ± 0.45
2 | TTATATTTTACAAATGCACACATAATTTTTTTTTTT [CACACA_site8890] | 9.04 ± 0.19
3 | TTTGATAATAAGATATAATACTTAAATATATATATA [GTGCAC_negctrl_site339] | 9.09 ± 0.21
4 | AAATATATATTCAAAAGTACACAATTTGTTAATAAT [XGTACX_site8917] | 7.8 ± 0.48
5 | TATTTTACGCGGTTTATAATGACATGTTCTATATTT [CACACA_negctrl_site1184] | 7.83 ± 0.65
6 | TAAATATATAAATACACACACACCAAAGCAATAGAT [CACACA_site5605] | 8.21 ± 0.65
7 | TCCATATGCATGTATTGTACTGTAATATATTAAAAA [XGTACX_site472] | 7.86 ± 0.38
8 | AGCAGTCGACAGGACAGTACACAGTAGCCAGGAAAT [XGTACX_site4929] | 7.75 ± 0.76
9 | AAAAAAAAAAAAGAAACACACACATATATATATATA [CACACA_site8525] | 9.38 ± 0.14
10 | GCTTATATTAATAAGGTGCTTTTTATTTCGTGTGTA [GTGCAC_site9649] | 9.06 ± 0.15
11 | AATATGTACAGACATACACACATATTTATATTTATA [CACACA_site6694] | 7.79 ± 0.4
12 | TTATATAAAGAATGTACACACAGAAATGCACAGACA [CACACA_site5288] | 9.43 ± 0.29
13 | TCATAGTATAAACACACACACACACCCATATATATA [CACACA_site8512] | 8.43 ± 0.63
14 | TAGTATTAAATATATACACACATATATACCTATAGA [CACACA_site5219] | 7.63 ± 0.55
15 | TGAAAAGATAAAAAAAGTACACACACACATATATAT [XGTACX_site6504] | 8.31 ± 0.52
16 | AAAAATTCAATAGGACGTACTAAAACATTCATTAAT [XGTACX_site1712] | 7.71 ± 0.6
17 | TTATAAATAATGAGAAACATTAAATTTAATCATAAA [CACACA_negctrl_site523] | 7.51 ± 0.41
18 | TTTAGTGTTATAAAAAGTACATAATAATTCCTTTTC [XGTACX_site3208] | 7.74 ± 0.25
19 | TACTATATATATATATATATATATATATATATTTAT [GTGCAC_negctrl_site593] | 8.32 ± 0.26

Row | Sequence | gcPBM binding intensity (ln)
20 | TAAAAAAATTATATTTGTACATATTAATATAGCCTT [XGTACX_site4833] | 7.47 ± 0.42
21 | AAACGTATTCTATAAAGTACATTATTATAGTAGACC [XGTACX_site8068] | 7.77 ± 0.48
22 | TATTGAATAAAATGCACACGCATGCGTTATTTATTA [CACACA_site3479] | 8.9 ± 0.21
23 | AAAATATTTATTTTTTGTACACATAAAAACGCACTT [XGTACX_site4132] | 8.98 ± 0.16
24 | CATATTTTGTGAAAAAGTACATATATATATATATAT [XGTACX_site6295] | 9.36 ± 0.3
25 | ATATGTCCATATAGTAAATGTTACATTTTAAAGCGC [XGTACX_negctrl_site168] | 7.67 ± 0.56
26 | ATTCTTAAAAAATAAGTGCAAAATAATTAAATAAAT | 10.23 ± 0.014
27 | AGAATGGTTTATAAAGGTACGTAATTTTTAATTTTA [XGTACX_site383] | 7.54 ± 0.49
28 | TATTTATTTATTTAATGTACAAAAGAACAAGAATTT [XGTACX_site2248] | 7.83 ± 0.66
29 | TATGTATATACATAAACATGCAAAAACAATATCTTA [TGCATGCA_site950] | 7.61 ± 0.63
30 | TTCTTCTGTTTTATTACACACCATTTTGTGTATACA [CACACA_site7059] | 8.41 ± 0.76
31 | TCTTAATCGTATTATTACTATAATTATATAATATTT [CACACA_negctrl_site1594] | 7.77 ± 0.49
32 | AACGATATATGTACTACACACATTATGTCATCCTAT [CACACA_site2464] | 7.98 ± 0.45
33 | CAAAAAGGAATGTATGCACACAATTGATTTTAACTC [CACACA_site1468] | 8.66 ± 0.61
34 | ATATATATATTATATAGTACAGAGTATACTATTATA [XGTACX_site1893] | 8.48 ± 0.13
35 | ACAAAAGGGGAATACACACACATATATATATATATA [CACACA_site2215] | 9.35 ± 0.39
36 | GATCTAAAAACAAGGTGTACAAGAAAAAAAAAAAAA [XGTACX_site7577] | 8.36 ± 0.77
37 | ATATATATATAATGTTGTACATAAATATTATATTTA [XGTACX_site5225] | 8.96 ± 0.12
38 | TTTTTATTTATTCTCTTTGTATTATAAAATAAAAGC [XGTACX_negctrl_site253] | 7.67 ± 0.5

Row | Sequence | gcPBM binding intensity (ln)
39 | GGAAAAATATAATATGCATGTTATTATTTTTTTATA [TGCATGCA_site836] | 8.07 ± 0.99
40 | TTTTTTTTCAATGGCACACATTTTAGATTTATGCTT [CACACA_site4735] | 8.26 ± 0.4
41 | CATAAATAATATATTTGTACGAATAAAATTTGTTCA [XGTACX_site3445] | 7.49 ± 0.34
42 | TAAAACAATATAAAATGTACAGAATTTTTTTTTCTT [XGTACX_site6820] | 7.51 ± 0.44
43 | TTCTTTTATGATAATTGTACCCTTTTTAAAAAGAAA [XGTACX_site7815] | 8.26 ± 0.21
44 | ATAATGAAAAGAAAGGGTACAAAAAAAAAAAAAAAT [XGTACX_site3350] | 7.97 ± 0.44
45 | AACTGATTATTTTTTTGTACATATATAATAATATAT [XGTACX_site5953] | 7.92 ± 0.42
46 | ATATGGATTATACATACATGCATACATACATACATA [TGCATGCA_site475] | 7.84 ± 0.76
47 | TATATACATATATGCACACAAAAAAATATATATTTT [CACACA_site1729] | 8.99 ± 0.11
48 | AATGATACACATATATGTACATATATATATATATAT [XGTACX_site5391] | 9.24 ± 0.41
49 | TGCAATATATCAAAGTGTACATGCAATAAAAAAAAA [XGTACX_site652] | 8.54 ± 0.74
50 | AAAATTTAATATAATGCACACATAAAACAAAAACAA [CACACA_site8071] | 10.9 ± 0.64
51 | AAATGTAGAAAAAGTTGTACACTGTTTCAAAAATAA [XGTACX_site1063] | 7.89 ± 0.44
52 | TTTAAAGTTTTATACACACACCAAAGTTATTCTAAT [CACACA_site6432] | 7.68 ± 0.52
53 | CAATGAAAAATAATGAGTACATAGTTAATAAAGATA [XGTACX_site72] | 7.89 ± 0.54
54 | ATAATTAAAATTAAATGTACTTTTTTATATATTTTT [XGTACX_site2209] | 7.57 ± 0.35
55 | AATTTCTTTTTCGATATACACACTGTATGTGTCTAA [CACACA_site3975] | 7.74 ± 0.72
56 | ATCTTAATTTTTGAAGGTACACACTAATATATTAAA [XGTACX_site2292] | 7.83 ± 0.38
